# The other results are listed elsewhere or left out.
# B1: rMpL (Macrolepiota procera) (protein)
# chain: MSTQVSSGRTYKITNVIAGTVIDLSGEDNKSIIGYPYHSGKNQQWTFNWTGKAWTLRSASSGSYLGIEGTPAGGTRLVAVNDPFEWHIWRDEANENAFRIFVPFTNYNLDLSGYGDTTPGTPVQLWWTWEGLHQTWTIDRP
# Assays:
# Assay in all cases: glycan array binding signal (z-score within array); higher = stronger binding
# Details in all cases: glycan notation: IUPAC condensed, linker removed
# [1] = molecular target: Neu5Ac(a2-3)Gal(b1-4)GlcNAc
# Summary of the method: (§1)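 The binding signal is a Z-score computed within each array and averaged over linkers. Arrays of the same protein sequence at different concentrations or buffers were also averaged together. Data originate from 3228 arrays in the Consortium for Functional Glycomics database, kept only where the protein sequence was available.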
# [2] = molecular target: Neu5Ac(a2-3)Gal(b1-4)GlcNAc(b1-2)Man
# Summary of the method: as §1
# [3] = molecular target: Neu5Ac(a2-3)Gal(b1-4)GlcNAc(b1-2)Man(a1-3)[GlcNAc(b1-4)][Neu5Ac(a2-3)Gal(b1-4)GlcNAc(b1-2)Man(a1-6)]Man(b1-4)GlcNAc(b1-4)GlcNAc
# Summary of the method: as §1
# [4] = molecular target: Neu5Ac(a2-3)Gal(b1-4)GlcNAc(b1-2)Man(a1-3)[Neu5Ac(a2-3)Gal(b1-4)GlcNAc(b1-2)Man(a1-6)]Man(b1-4)GlcNAc(b1-4)GlcNAc
# Summary of the method: as §1
# [5] = molecular target: Neu5Ac(a2-3)Gal(b1-4)GlcNAc(b1-2)Man(a1-3)[Neu5Ac(a2-3)Gal(b1-4)GlcNAc(b1-2)Man(a1-6)]Man(b1-4)GlcNAc(b1-4)[Fuc(a1-6)]GlcNAc
# Summary of the method: as §1
# [6] = molecular target: Neu5Ac(a2-3)Gal(b1-4)GlcNAc(b1-2)Man(a1-3)[Neu5Ac(a2-6)Gal(b1-4)GlcNAc(b1-2)Man(a1-6)]Man(b1-4)GlcNAc(b1-4)GlcNAc
# Summary of the method: as §1
# [7] = molecular target: Neu5Ac(a2-3)Gal(b1-4)GlcNAc(b1-2)[Neu5Ac(a2-3)Gal(b1-4)GlcNAc(b1-2)]Man(a1-6)[Neu5Ac(a2-3)Gal(b1-4)GlcNAc(b1-2)Man(a1-3)][GlcNAc(b1-4)]Man(b1-4)GlcNAc(b1-4)GlcNAc
# Summary of the method: as §1
# [8] = molecular target: Neu5Ac(a2-3)Gal(b1-4)GlcNAc(b1-2)[Neu5Ac(a2-3)Gal(b1-4)GlcNAc(b1-4)]Man(a1-3)[GlcNAc(b1-4)][Neu5Ac(a2-3)Gal(b1-4)GlcNAc(b1-2)[Neu5Ac(a2-3)Gal(b1-4)GlcNAc(b1-6)]Man(a1-6)]Man(b1-4)GlcNAc(b1-4)GlcNAc
# Summary of the method: as §1
# [9] = molecular target: Neu5Ac(a2-3)Gal(b1-4)GlcNAc(b1-2)[Neu5Ac(a2-3)Gal(b1-4)GlcNAc(b1-4)]Man(a1-3)[GlcNAc(b1-4)][Neu5Ac(a2-3)Gal(b1-4)GlcNAc(b1-4)Man(a1-6)]Man(b1-4)GlcNAc(b1-4)GlcNAc
# Summary of the method: as §1
# [10] = molecular target: Neu5Ac(a2-3)Gal(b1-4)GlcNAc(b1-2)[Neu5Ac(a2-3)Gal(b1-4)GlcNAc(b1-6)]Man(a1-6)[Neu5Ac(a2-3)Gal(b1-4)GlcNAc(b1-2)Man(a1-3)]Man(b1-4)GlcNAc(b1-4)GlcNAc
# Summary of the method: as §1
# [11] = molecular target: Neu5Ac(a2-3)Gal(b1-4)GlcNAc(b1-2)[Neu5Ac(a2-3)Gal(b1-4)GlcNAc(b1-6)]Man(a1-6)[Neu5Ac(a2-3)Gal(b1-4)GlcNAc(b1-2)Man(a1-3)][GlcNAc(b1-4)]Man(b1-4)GlcNAc(b1-4)GlcNAc
# Summary of the method: as §1
# [12] = molecular target: Neu5Ac(a2-3)Gal(b1-4)GlcNAc(b1-3)Gal
# Summary of the method: as §1
# [13] = molecular target: Neu5Ac(a2-3)Gal(b1-4)GlcNAc(b1-3)Gal(b1-3)GlcNAc
# Summary of the method: as §1
# [14] = molecular target: Neu5Ac(a2-3)Gal(b1-4)GlcNAc(b1-3)Gal(b1-4)GlcNAc
# Summary of the method: as §1
# [15] = molecular target: Neu5Ac(a2-3)Gal(b1-4)GlcNAc(b1-3)Gal(b1-4)GlcNAc(b1-2)Man(a1-3)[Neu5Ac(a2-3)Gal(b1-4)GlcNAc(b1-3)Gal(b1-4)GlcNAc(b1-2)Man(a1-6)]Man(b1-4)GlcNAc(b1-4)GlcNAc
# Summary of the method: as §1
# [16] = molecular target: Neu5Ac(a2-3)Gal(b1-4)GlcNAc(b1-3)Gal(b1-4)GlcNAc(b1-3)Gal(b1-4)GlcNAc
# Summary of the method: as §1
# [17] = molecular target: Neu5Ac(a2-3)Gal(b1-4)GlcNAc(b1-3)Gal(b1-4)GlcNAc(b1-3)Gal(b1-4)GlcNAc(b1-2)Man(a1-3)[Neu5Ac(a2-3)Gal(b1-4)GlcNAc(b1-3)Gal(b1-4)GlcNAc(b1-3)Gal(b1-4)GlcNAc(b1-2)Man(a1-6)]GalNAc
# Summary of the method: as §1
# [18] = molecular target: Neu5Ac(a2-3)Gal(b1-4)GlcNAc(b1-3)Gal(b1-4)GlcNAc(b1-3)GalNAc
# Summary of the method: as §1
# [19] = molecular target: Neu5Ac(a2-3)Gal(b1-4)GlcNAc(b1-3)Gal(b1-4)GlcNAc(b1-3)[Neu5Ac(a2-3)Gal(b1-4)GlcNAc(b1-3)Gal(b1-4)GlcNAc(b1-6)]GalNAc
# Summary of the method: as §1
# [20] = molecular target: Neu5Ac(a2-3)Gal(b1-4)GlcNAc(b1-3)Gal(b1-4)GlcNAc(b1-6)[Gal(b1-3)]GalNAc
# Summary of the method: as §1
# [21] = molecular target: Neu5Ac(a2-3)Gal(b1-4)GlcNAc(b1-3)Gal(b1-4)[Fuc(a1-3)]GlcNAc
# Summary of the method: as §1
# [22] = molecular target: Neu5Ac(a2-3)Gal(b1-4)GlcNAc(b1-3)GalNAc
# Summary of the method: as §1
# [23] = molecular target: Neu5Ac(a2-3)Gal(b1-4)GlcNAc(b1-3)[Neu5Ac(a2-3)Gal(b1-4)GlcNAc(b1-6)]GalNAc
# Summary of the method: as §1
# [24] = molecular target: Neu5Ac(a2-3)Gal(b1-4)GlcNAc(b1-6)GalNAc
# Summary of the method: as §1
# [25] = molecular target: Neu5Ac(a2-3)Gal(b1-4)GlcNAc(b1-6)[Gal(b1-3)]GalNAc
# Summary of the method: as §1
# [26] = molecular target: Neu5Ac(a2-3)Gal(b1-4)GlcNAc(b1-6)[Neu5Ac(a2-3)Gal(b1-3)]GalNAc
# Summary of the method: as §1
# [27] = molecular target: Neu5Ac(a2-3)Gal(b1-4)GlcNAc6S
# Summary of the method: as §1
# [28] = molecular target: Neu5Ac(a2-3)Gal(b1-4)[Fuc(a1-3)]GlcNAc
# Summary of the method: as §1
# [29] = molecular target: Neu5Ac(a2-3)Gal(b1-4)[Fuc(a1-3)]GlcNAc(b1-2)Man
# Summary of the method: as §1
# [30] = molecular target: Neu5Ac(a2-3)Gal(b1-4)[Fuc(a1-3)]GlcNAc(b1-3)Gal
# Summary of the method: as §1
# [31] = molecular target: Neu5Ac(a2-3)Gal(b1-4)[Fuc(a1-3)]GlcNAc(b1-3)Gal(b1-4)GlcNAc
# Summary of the method: as §1
# [32] = molecular target: Neu5Ac(a2-3)Gal(b1-4)[Fuc(a1-3)]GlcNAc(b1-3)Gal(b1-4)[Fuc(a1-3)]GlcNAc(b1-3)Gal(b1-4)[Fuc(a1-3)]GlcNAc
# Summary of the method: as §1
# [33] = molecular target: Neu5Ac(a2-3)Gal(b1-4)[Fuc(a1-3)]GlcNAc(b1-3)GalNAc
# Summary of the method: as §1
# [34] = molecular target: Neu5Ac(a2-3)Gal(b1-4)[Fuc(a1-3)]GlcNAc(b1-6)[Gal(b1-3)]GalNAc
# Summary of the method: as §1
# [35] = molecular target: Neu5Ac(a2-3)Gal(b1-4)[Fuc(a1-3)]GlcNAc(b1-6)[Neu5Ac(a2-3)Gal(b1-3)]GalNAc
# Summary of the method: as §1
# [36] = molecular target: Neu5Ac(a2-3)Gal(b1-4)[Fuc(a1-3)]GlcNAc6S
# Summary of the method: as §1
# [37] = molecular target: Neu5Ac(a2-3)Gal6S(b1-4)GlcNAc
# Summary of the method: as §1
# [38] = molecular target: Neu5Ac(a2-3)Gal6S(b1-4)[Fuc(a1-3)]GlcNAc
# Summary of the method: as §1
# [39] = molecular target: Neu5Ac(a2-3)GalNAc
# Summary of the method: as §1
# [40] = molecular target: Neu5Ac(a2-3)GalNAc(b1-4)GlcNAc
# Summary of the method: as §1
# [41] = molecular target: Neu5Ac(a2-3)[GalNAc(b1-4)]Gal(b1-4)Glc
# Summary of the method: as §1
# [42] = molecular target: Neu5Ac(a2-3)[GalNAc(b1-4)]Gal(b1-4)GlcNAc
# Summary of the method: as §1
# [43] = molecular target: Neu5Ac(a2-3)[GalNAc(b1-4)]Gal(b1-4)GlcNAc(b1-3)GalNAc
# Summary of the method: as §1
# [44] = molecular target: Neu5Ac(a2-3)[Neu5Ac(a2-6)]GalNAc
# Summary of the method: as §1
# [45] = molecular target: Neu5Ac(a2-6)Gal
# Summary of the method: as §1
binder,measurement,setting,value
B1,glycan array binding signal (z-score),[1],-0.817
same,glycan array binding signal (z-score),[2],-0.107
same,glycan array binding signal (z-score),[3],-0.305
same,glycan array binding signal (z-score),[4],-0.386
same,glycan array binding signal (z-score),[5],-0.223
same,glycan array binding signal (z-score),[6],-0.371
same,glycan array binding signal (z-score),[7],-0.349
same,glycan array binding signal (z-score),[8],-0.348
same,glycan array binding signal (z-score),[9],-0.38
same,glycan array binding signal (z-score),[10],-0.276
same,glycan array binding signal (z-score),[11],-0.377
same,glycan array binding signal (z-score),[12],-0.412
same,glycan array binding signal (z-score),[13],-0.359
same,glycan array binding signal (z-score),[14],-0.278
same,glycan array binding signal (z-score),[15],0.186
same,glycan array binding signal (z-score),[16],-0.383
same,glycan array binding signal (z-score),[17],0.754
same,glycan array binding signal (z-score),[18],-0.247
same,glycan array binding signal (z-score),[19],-0.021
same,glycan array binding signal (z-score),[20],-0.198
same,glycan array binding signal (z-score),[21],-0.349
same,glycan array binding signal (z-score),[22],-0.329
same,glycan array binding signal (z-score),[23],-0.206
same,glycan array binding signal (z-score),[24],-0.336
same,glycan array binding signal (z-score),[25],-0.258
same,glycan array binding signal (z-score),[26],-0.248
same,glycan array binding signal (z-score),[27],-0.449
same,glycan array binding signal (z-score),[28],-0.32
same,glycan array binding signal (z-score),[29],-0.689
same,glycan array binding signal (z-score),[30],-0.317
same,glycan array binding signal (z-score),[31],-0.208
same,glycan array binding signal (z-score),[32],-0.257
same,glycan array binding signal (z-score),[33],-0.14
same,glycan array binding signal (z-score),[34],-0.201
same,glycan array binding signal (z-score),[35],-0.185
same,glycan array binding signal (z-score),[36],-0.377
same,glycan array binding signal (z-score),[37],-0.355
same,glycan array binding signal (z-score),[38],-0.382
same,glycan array binding signal (z-score),[39],-0.431
same,glycan array binding signal (z-score),[40],-0.299
same,glycan array binding signal (z-score),[41],-0.338
same,glycan array binding signal (z-score),[42],-0.443
same,glycan array binding signal (z-score),[43],0.009
same,glycan array binding signal (z-score),[44],-0.364
same,glycan array binding signal (z-score),[45],-0.357

# Source: the supplement of paper PMC8728848
